{"source": "the supplement of paper PMC8728848", "binders": {"B1": {"name": "OGAA (protein)", "chain": "MVQKESQATLEERESELSSNPAASAGASLEPPAAPAPGEDNPAGAGGAAVAGAAGGARRFLCGVVEGFYGRPWVMEQRKELFRRLQKWELNTYLYAPKDDYKHRMFWREMYSVEEAEQLMTLISAAREYEIEFIYAISPGLDITFSNPKEVSTLKRKLDQVSQFGCRSFALLFADIDHNMCAADKEVFSSFAHAQVSITNEIYQYLGEPETFLFCPTEYCGTFCYPNVSQSPYLRTVGEKLLPGIEVLWTGPKVVSKEIPVESIEEVSKIIKRAPVIWDNIHANDYDQKRLFLGPYKGRSTELIPRLKGVLTNPNCEFEANYVAIHTLATWYKSNMNGVRKDVVMTDSEDSTVSIQIKLENEGSDEDIETDVLYSPQMALKLALTEWLQEFGVPHQY"}}, "assay_in_all_cases": "glycan array binding signal (z-score within array); higher = stronger binding", "details_in_all_cases": "glycan notation: IUPAC condensed, linker removed", "key": {"GalNAc(b1-3)Gal": {"target": "GalNAc(b1-3)Gal", "summary_of_the_method": "(§1)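 The binding signal is a Z-score computed within each array. Data were drawn from 3228 arrays in the Consortium for Functional Glycomics database, restricted to those with a known protein sequence. Scores were averaged over arrays of the same protein sequence at different concentrations or buffers, and over linkers, and negative values can be taken as non-binding.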"}, "[1]": {"target": "GalNAc(b1-3)Gal(a1-4)Gal(b1-4)GlcNAc", "summary_of_the_method": "as §1"}, "[2]": {"target": "GalNAc(b1-3)Gal(a1-4)Gal(b1-4)GlcNAc(b1-3)Gal(b1-4)Glc", "summary_of_the_method": "as §1"}, "[3]": {"target": "GalNAc(b1-3)Gal(a1-6)Gal(b1-4)Glc", "summary_of_the_method": "as §1"}, "GalNAc(b1-3)GalNAc": {"target": "GalNAc(b1-3)GalNAc", "summary_of_the_method": "as §1"}, "GalNAc(b1-3)GlcNAc": {"target": "GalNAc(b1-3)GlcNAc", "summary_of_the_method": "as §1"}, "GalNAc(b1-4)Gal(b1-4)Glc": {"target": "GalNAc(b1-4)Gal(b1-4)Glc", "summary_of_the_method": "as §1"}, "GalNAc(b1-4)GlcNAc": {"target": "GalNAc(b1-4)GlcNAc", "summary_of_the_method": "as §1"}, "[4]": {"target": "GalNAc(b1-4)GlcNAc(b1-2)Man", "summary_of_the_method": "as §1"}, "[5]": {"target": "GalNAc(b1-4)GlcNAc(b1-2)Man(a1-3)[GalNAc(b1-4)GlcNAc(b1-2)Man(a1-6)]Man(b1-4)GlcNAc(b1-4)GlcNAc", "summary_of_the_method": "as §1"}, "[6]": {"target": "GalNAc(b1-4)GlcNAc(b1-3)GalNAc(b1-4)GlcNAc", "summary_of_the_method": "as §1"}, "GalNAc(b1-4)GlcNAc6S": {"target": "GalNAc(b1-4)GlcNAc6S", "summary_of_the_method": "as §1"}, "GalNAc(b1-6)GalNAc": {"target": "GalNAc(b1-6)GalNAc", "summary_of_the_method": "as §1"}, "GalNAc3S(b1-4)GlcNAc": {"target": "GalNAc3S(b1-4)GlcNAc", "summary_of_the_method": "as §1"}, "GalNAc3S(b1-4)GlcNAc3S": {"target": "GalNAc3S(b1-4)GlcNAc3S", "summary_of_the_method": "as §1"}, "[7]": {"target": "GalNAc3S(b1-4)[Fuc(a1-3)]GlcNAc", "summary_of_the_method": "as §1"}, "GalNAc4S6S(b1-4)GlcNAc": {"target": "GalNAc4S6S(b1-4)GlcNAc", "summary_of_the_method": "as §1"}, "GalNAc6S(b1-4)GlcNAc": {"target": "GalNAc6S(b1-4)GlcNAc", "summary_of_the_method": "as §1"}, "Glc(a1-4)Glc": {"target": "Glc(a1-4)Glc", "summary_of_the_method": "as §1"}, "[8]": {"target": "Glc(a1-4)Glc(a1-4)Glc(a1-4)Glc", "summary_of_the_method": "as §1"}, "Glc(a1-6)Glc(a1-6)Glc": {"target": "Glc(a1-6)Glc(a1-6)Glc", "summary_of_the_method": "as §1"}, "[9]": {"target": "Glc(a1-6)Glc(a1-6)Glc(a1-6)Glc", "summary_of_the_method": "as §1"}, "Glc(b1-4)Glc": {"target": "Glc(b1-4)Glc", "summary_of_the_method": "as §1"}, "Glc(b1-6)Glc": {"target": "Glc(b1-6)Glc", "summary_of_the_method": "as §1"}, "GlcA(b1-3)Gal": {"target": "GlcA(b1-3)Gal", "summary_of_the_method": "as §1"}, "GlcA(b1-3)GlcNAc": {"target": "GlcA(b1-3)GlcNAc", "summary_of_the_method": "as §1"}, "GlcA(b1-6)Gal": {"target": "GlcA(b1-6)Gal", "summary_of_the_method": "as §1"}, "[10]": {"target": "GlcA3S(b1-3)Gal(b1-4)GlcNAc(b1-2)Man", "summary_of_the_method": "as §1"}, "[11]": {"target": "GlcA3S(b1-3)Gal(b1-4)GlcNAc(b1-3)Gal(b1-4)Glc", "summary_of_the_method": "as §1"}, "[12]": {"target": "GlcNAc(a1-3)Gal(b1-4)GlcNAc", "summary_of_the_method": "as §1"}, "[13]": {"target": "GlcNAc(a1-4)Gal(b1-3)GlcNAc", "summary_of_the_method": "as §1"}, "[14]": {"target": "GlcNAc(a1-4)Gal(b1-4)GalNAc", "summary_of_the_method": "as §1"}, "[15]": {"target": "GlcNAc(a1-4)Gal(b1-4)GlcNAc", "summary_of_the_method": "as §1"}, "[16]": {"target": "GlcNAc(a1-4)Gal(b1-4)GlcNAc(b1-3)Gal(b1-4)Glc", "summary_of_the_method": "as §1"}, "[17]": {"target": "GlcNAc(a1-4)Gal(b1-4)GlcNAc(b1-3)Gal(b1-4)GlcNAc", "summary_of_the_method": "as §1"}, "[18]": {"target": "GlcNAc(a1-4)Gal(b1-4)GlcNAc(b1-3)Gal(b1-4)GlcNAc(b1-3)Gal(b1-4)GlcNAc", "summary_of_the_method": "as §1"}, "[19]": {"target": "GlcNAc(a1-4)Gal(b1-4)GlcNAc(b1-3)Gal(b1-4)[Fuc(a1-3)]GlcNAc(b1-3)Gal(b1-4)[Fuc(a1-3)]GlcNAc", "summary_of_the_method": "as §1"}, "[20]": {"target": "GlcNAc(a1-6)Gal(b1-4)GlcNAc", "summary_of_the_method": "as §1"}}, "note": "This is one part of the list.", "data": [{"binder": "B1", "values": [{"measurement": "glycan array binding signal (z-score)", "setting": "GalNAc(b1-3)Gal", "result": -0.039}, {"measurement": "glycan array binding signal (z-score)", "setting": "[1]", "result": -0.056}, {"measurement": "glycan array binding signal (z-score)", "setting": "[2]", "result": -0.076}, {"measurement": "glycan array binding signal (z-score)", "setting": "[3]", "result": -0.032}, {"measurement": "glycan array binding signal (z-score)", "setting": "GalNAc(b1-3)GalNAc", "result": -0.106}, {"measurement": "glycan array binding signal (z-score)", "setting": "GalNAc(b1-3)GlcNAc", "result": -0.083}, {"measurement": "glycan array binding signal (z-score)", "setting": "GalNAc(b1-4)Gal(b1-4)Glc", "result": -0.096}, {"measurement": "glycan array binding signal (z-score)", "setting": "GalNAc(b1-4)GlcNAc", "result": -0.072}, {"measurement": "glycan array binding signal (z-score)", "setting": "[4]", "result": -0.121}, {"measurement": "glycan array binding signal (z-score)", "setting": "[5]", "result": -0.075}, {"measurement": "glycan array binding signal (z-score)", "setting": "[6]", "result": -0.095}, {"measurement": "glycan array binding signal (z-score)", "setting": "GalNAc(b1-4)GlcNAc6S", "result": -0.11}, {"measurement": "glycan array binding signal (z-score)", "setting": "GalNAc(b1-6)GalNAc", "result": -0.063}, {"measurement": "glycan array binding signal (z-score)", "setting": "GalNAc3S(b1-4)GlcNAc", "result": -0.005}, {"measurement": "glycan array binding signal (z-score)", "setting": "GalNAc3S(b1-4)GlcNAc3S", "result": -0.109}, {"measurement": "glycan array binding signal (z-score)", "setting": "[7]", "result": -0.054}, {"measurement": "glycan array binding signal (z-score)", "setting": "GalNAc4S6S(b1-4)GlcNAc", "result": -0.099}, {"measurement": "glycan array binding signal (z-score)", "setting": "GalNAc6S(b1-4)GlcNAc", "result": -0.082}, {"measurement": "glycan array binding signal (z-score)", "setting": "Glc(a1-4)Glc", "result": -0.014}, {"measurement": "glycan array binding signal (z-score)", "setting": "[8]", "result": 0.179}, {"measurement": "glycan array binding signal (z-score)", "setting": "Glc(a1-6)Glc(a1-6)Glc", "result": 0.016}, {"measurement": "glycan array binding signal (z-score)", "setting": "[9]", "result": -0.081}, {"measurement": "glycan array binding signal (z-score)", "setting": "Glc(b1-4)Glc", "result": -0.071}, {"measurement": "glycan array binding signal (z-score)", "setting": "Glc(b1-6)Glc", "result": -0.129}, {"measurement": "glycan array binding signal (z-score)", "setting": "GlcA(b1-3)Gal", "result": -0.051}, {"measurement": "glycan array binding signal (z-score)", "setting": "GlcA(b1-3)GlcNAc", "result": -0.042}, {"measurement": "glycan array binding signal (z-score)", "setting": "GlcA(b1-6)Gal", "result": -0.108}, {"measurement": "glycan array binding signal (z-score)", "setting": "[10]", "result": -0.052}, {"measurement": "glycan array binding signal (z-score)", "setting": "[11]", "result": -0.025}, {"measurement": "glycan array binding signal (z-score)", "setting": "[12]", "result": -0.092}, {"measurement": "glycan array binding signal (z-score)", "setting": "[13]", "result": -0.011}, {"measurement": "glycan array binding signal (z-score)", "setting": "[14]", "result": -0.102}, {"measurement": "glycan array binding signal (z-score)", "setting": "[15]", "result": -0.081}, {"measurement": "glycan array binding signal (z-score)", "setting": "[16]", "result": -0.078}, {"measurement": "glycan array binding signal (z-score)", "setting": "[17]", "result": 0.022}, {"measurement": "glycan array binding signal (z-score)", "setting": "[18]", "result": -0.09}, {"measurement": "glycan array binding signal (z-score)", "setting": "[19]", "result": 0.075}, {"measurement": "glycan array binding signal (z-score)", "setting": "[20]", "result": -0.081}]}]}
